# Inconclusive means that the source gave no clear call. Such entries were picked first, then a sample of the others. For part of these data: Potencies beside an inconclusive call are fits to weak or partial responses and may not hold up. Activity calls are given as the source filed them. Unless noted, calls follow the shape of the dose curve; as a rule, active = well fitted curve in the direction sought with a large enough effect in the repeat runs; inconclusive = weak or mixed curves; inactive = no such curve, though single readings can be large; an effect the other way counts as inactive or inconclusive.
# How the values were obtained:
# [1] = qHTS assay for small molecule agonists of the antioxidant response element (ARE) signaling pathway - cell viability counter screen (AID 743203; calls by dose curve; also: potency is read from the fitted curve at half-maximal effect; nearly all actives have a fitted effect of over 55% in size); details: ARE-bla HepG2 viability, CellTiter-Glo luminescence, 16 h; viability change, negative = cytotoxic: at 73.3 µM (top of the series)
# Outline: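 Compounds in DMSO were pinned onto ARE-bla HepG2 cells plated 5 hrs earlier at 2,000 cells/well. Sixteen hours later at 37C/5% CO2, CellTiter-Glo was added and luminescence measured after 30 min at room temperature.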
# [2] = qHTS assay for small molecule activators of the heat shock response signaling pathway - cell viability counter screen (AID 743209); details: HSE-bla HeLa viability, CellTiter-Glo luminescence, 5 h; activity change, negative = cytotoxicity: at 62.6 µM (top of the series); also: potency is read from the fitted curve at half-maximal effect; nearly all actives have a fitted effect of over 50% in size
# Outline: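 Counter screen for cytotoxicity in HeLa HSE-bla reporter cells. Treatment was 5 h at 37 C; viability was detected by luminescent ATP assay (CellTiter-Glo) in the same wells as the beta-lactamase read.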
# [3] = qHTS assay to identify small molecule agonists of the peroxisome proliferator-activated receptor delta (PPARd) signaling pathway - cell viability counter screen (AID 743211); details: PPARd-bla HEK293H viability, CellTiter-Glo luminescence, 17 h; activity change, negative = cytotoxicity: at 62.6 µM (top of the series); also: potency is read from the fitted curve at half-maximal effect; nearly all actives have a fitted effect of over 55% in size
# Outline: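 Tox21 library compounds, delivered in DMSO, were incubated 17 h with PPARd-bla HEK293H cells; cytotoxicity was taken from CellTiter-Glo luminescence read 30 min after reagent addition.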
# [4] = target: Peroxisome proliferator-activated receptor delta (Homo sapiens) (UniProt Q03181); assay: qHTS assay to identify small molecule agonists of the peroxisome proliferator-activated receptor delta (PPARd) signaling pathway (AID 743212; calls by dose curve;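 also: HEK293H cells with PPARd UAS beta-lactamase reporter GeneBLAzer system; potency is read from the fitted curve at half-maximal effect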); details: HEK293H PPARd-UAS-bla, beta-lactamase FRET ratio, 17 h; activation: at 62.6 µM (top of the series) unless noted
# UniProt Q03181, sequence (Q03181 whole entry, looked up): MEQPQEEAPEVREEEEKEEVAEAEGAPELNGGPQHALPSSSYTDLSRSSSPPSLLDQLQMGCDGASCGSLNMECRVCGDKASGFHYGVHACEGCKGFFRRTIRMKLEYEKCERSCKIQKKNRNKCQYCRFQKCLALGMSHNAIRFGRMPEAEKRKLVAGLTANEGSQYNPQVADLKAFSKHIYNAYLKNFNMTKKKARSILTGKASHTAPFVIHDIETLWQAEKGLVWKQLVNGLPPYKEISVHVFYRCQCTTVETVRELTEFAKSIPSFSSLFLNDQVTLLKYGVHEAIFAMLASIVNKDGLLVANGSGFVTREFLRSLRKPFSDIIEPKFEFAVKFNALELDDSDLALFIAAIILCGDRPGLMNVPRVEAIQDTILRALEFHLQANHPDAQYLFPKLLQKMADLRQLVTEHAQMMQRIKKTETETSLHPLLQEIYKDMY
# Outline: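 GeneBLAzer UAS-bla HEK293H cells carrying a PPARδ construct were exposed to compounds at 37 °C. Beta-lactamase activity was read by FRET fluorescence after 2 h at room temperature with LiveBLAzer B/G substrate.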
# [5] = qHTS assay to identify small molecule antagonists of the peroxisome proliferator-activated receptor delta (PPARd) signaling pathway - cell viability counter screen (AID 743213); details: PPARd-bla HEK293H viability, CellTiter-Glo luminescence, 17 h; viability change, negative = cytotoxic: at 62 µM (top of the series) unless noted; also: potency is read from the fitted curve at half-maximal effect; nearly all actives have a fitted effect of over 50% in size
# Outline: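 Cytotoxicity counter screen: CellTiter-Glo luminescence read 30 min after addition, in the same wells as the reporter assay. There, PPARd UAS-bla HEK293H cells (3000/well) were treated 17 h at 37 C with compound and 300 nM L165041.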
# [6] = target: Peroxisome proliferator-activated receptor delta (Homo sapiens) (UniProt Q03181); assay: qHTS assay to identify small molecule antagonists of the peroxisome proliferator-activated receptor delta (PPARd) signaling pathway (AID 743215; active = well fitted inhibition curve with a large enough effect in the signal ratio in the repeat runs, not every such curve was filed as active; inconclusive = weak or mixed curves, or effect the other way; inactive = no such curve, though single readings can be large or run the other way; the % refers to the signal ratio;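 also: cells stimulated with agonist L165041 at 300 nM final during compound exposure; % is scaled to controls: 0 for no effect and ±100 for the full control effect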); details: HEK293H PPARd-UAS-bla, beta-lactamase FRET ratio, antagonist, 17 h; ratio activity, negative = inhibition: at 62 µM (top of the series) unless noted
# Outline: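 With L165041 present at 300 nM final, compounds were incubated 17 h at 37 C on PPARd UAS-bla HEK293H cells. A FRET-based beta-lactamase substrate was then applied for 2 h at room temperature and fluorescence intensity recorded.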
# [7] = qHTS assay to identify small molecule agonists of the farnesoid-X-receptor (FXR) signaling pathway - cell viability counter screen (AID 743218); details: FXR-bla HEK293T viability, CellTiter-Glo luminescence, 16 h; viability change, negative = cytotoxic: at 62.6 µM (top of the series) unless noted; also: nearly all actives have a fitted effect of over 45% in size; also: potency is read from the fitted curve at half-maximal effect; as to viability change, negative = cytotoxic: % is scaled to controls: 0 for no effect and ±100 for the full control effect
# Outline: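 After 16 h at 37 C with test compounds, FXR-bla HEK 293T cells were given LiveBLAzer B/G substrate for 2 h at RT and then CellTiter-Glo; luminescence was taken after 30 min.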
# [8] = qHTS assay to identify small molecule antagonists of the farnesoid-X-receptor (FXR) signaling pathway - cell viability counter screen (AID 743221; active = well fitted cell-killing curve with a large enough effect in the repeat runs, not every such curve was filed as active; inconclusive = weak or mixed curves, or effect the other way; inactive = no such curve, though single readings can be large or run the other way; also: potency is read from the fitted curve at half-maximal effect; nearly all actives have a fitted effect of over 50% in size); details: FXR-bla HEK293T viability, CellTiter-Glo luminescence, 16 h; activity change, negative = cytotoxicity: at 62.6 µM (top of the series) unless noted
# Outline: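 Cytotoxicity is taken from ATP luminescence (CellTiter-Glo, 30 min, room temperature) in FXR-bla HEK 293T cells previously incubated 16 h at 37 C with compound and chenodeoxycholic acid at 50 uM final.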
# [9] = target: Vitamin D3 receptor (Homo sapiens) (UniProt P11473); assay: qHTS assay to identify small molecule agonists of the vitamin D receptor (VDR) signaling pathway (AID 743222; calls by dose curve; also: potency is read from the fitted curve at half-maximal effect); details: HEK293T VDR-UAS-bla, beta-lactamase FRET ratio, 16 h; activation: at 63.5 µM (top of the series) unless noted
# UniProt P11473, sequence (P11473 whole entry, looked up): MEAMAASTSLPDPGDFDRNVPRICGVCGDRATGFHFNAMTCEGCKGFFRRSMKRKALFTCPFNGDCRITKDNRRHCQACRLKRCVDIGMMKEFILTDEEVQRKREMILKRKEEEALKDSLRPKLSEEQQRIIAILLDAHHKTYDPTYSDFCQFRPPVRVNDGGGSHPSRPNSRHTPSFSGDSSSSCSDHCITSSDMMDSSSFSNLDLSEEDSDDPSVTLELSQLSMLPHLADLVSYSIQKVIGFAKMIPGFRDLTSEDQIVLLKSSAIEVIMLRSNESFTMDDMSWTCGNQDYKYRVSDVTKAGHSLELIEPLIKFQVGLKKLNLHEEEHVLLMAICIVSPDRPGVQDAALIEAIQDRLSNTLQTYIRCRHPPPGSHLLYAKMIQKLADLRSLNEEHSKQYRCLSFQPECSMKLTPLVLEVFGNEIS
# Outline: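 VDR-bla cells were seeded, left 4 h, treated with compounds in DMSO for 16 h, incubated 2 h at RT with B/G FRET substrate, and read for fluorescence.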
# [10] = target: Vitamin D3 receptor (Homo sapiens) (UniProt P11473); assay: qHTS assay to identify small molecule antagonists of the vitamin D receptor (VDR) signaling pathway (AID 743223; active = well fitted inhibition curve with a large enough effect in the signal ratio in the repeat runs, not every such curve was filed as active; inconclusive = weak or mixed curves, or effect the other way; inactive = no such curve, though single readings can be large or run the other way; the % refers to the signal ratio; also: potency is read from the fitted curve at half-maximal effect); details: VDR-UAS-bla HEK293T, beta-lactamase FRET ratio, 16 h; activity change, negative = inhibition: at 61 µM (top of the series) unless noted
# Outline: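 Quantitative HTS in VDR-bla reporter cells stimulated with 1alpha,25-dihydroxyvitamin D3, 3 nM final. Compound exposure 16 h, 37C, 5% CO2. Read-out: beta-lactamase FRET substrate fluorescence, 2 h RT.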
# [11] = qHTS assay to identify small molecule agonists of the vitamin D receptor (VDR) signaling pathway - cell viability counter screen (AID 743224); details: VDR-bla HEK293T viability, CellTiter-Glo luminescence, 16 h; activity change, negative = cytotoxicity: at 62.6 µM (top of the series); also: potency is read from the fitted curve at half-maximal effect; nearly all actives have a fitted effect of over 50% in size
# Outline: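 Here cell health was gauged by luminescent ATP detection (CellTiter-Glo, 30 min RT) in VDR-bla cells that had been incubated with test compounds for 16 h at 37C and 5% CO2.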
# [12] = qHTS assay to identify small molecule antagonists of the vitamin D receptor (VDR) signaling pathway - cell viability counter screen (AID 743225); details: VDR-bla HEK293T viability, CellTiter-Glo luminescence, 16 h; viability change, negative = cytotoxic: at 61 µM (top of the series) unless noted
# Outline: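 Same-well multiplex: following 16 h treatment of HEK 293T cells carrying a UAS-driven beta-lactamase reporter with compound and agonist (3 nM final), and a 2 h FRET substrate step, CellTiter-Glo was added and luminescence read after 30 min.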
# [13] = target: Nuclear receptor ROR-gamma (Homo sapiens) (UniProt P51449); assay: qHTS assay to identify small molecule antagonists of the retinoid-related orphan receptor gamma (ROR-gamma) signaling pathway (AID 1159521)
# Outline: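 Inducible-expression reporter assay: doxycycline (1 uM final) switched on RORγ in CHO cells bearing a ROR response element-luciferase construct, with test compounds present from 2 h beforehand. Decreased luminescence after 16 h defined antagonist activity.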
# [14] = qHTS assay to identify small molecule agonists of the AP-1 signaling pathway (AID 1159526; calls by dose curve; also: % is scaled to controls: 0 for no effect and ±100 for the full control effect); details: ME-180 (cervical carcinoma) AP-1-bla reporter, beta-lactamase FRET ratio, 5 h; activation: at 76.8 µM (top of the series) unless noted
# [15] = qHTS assay for small molecule agonists of the antioxidant response element (ARE) signaling pathway (AID 743202; active = well fitted activation curve with a large enough effect in the signal ratio in the repeat runs, not every such curve was filed as active; inconclusive = weak or mixed curves, or effect the other way; inactive = no such curve, though single readings can be large or run the other way; the % refers to the signal ratio; also: potency is read from the fitted curve at half-maximal effect; as to activation: % is scaled to controls: 0 for no effect and ±100 for the full control effect); details: HepG2 ARE-bla reporter, beta-lactamase FRET, 16 h; activation: at 73.3 µM (top of the series) unless noted
# Outline: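 ARE-bla HepG2 cells (beta-lactamase reporter under the antioxidant response element), plated 5 hours, then exposed to compounds 16 hours at 37 C. LiveBLAzer B/G FRET substrate added for 2 hours at room temperature; fluorescence intensity read.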
# Tags tell the direction and shape of the fitted curve or compound fluorescence and quenching.
structure (smiles),measurement,setting,value
CC(=O)c1ccc2c(c1)N(CCCN1CCC(CCO)CC1)c1ccccc1S2,Potency,[1],"inconclusive: 33.5 µM [cytotoxic, partial curve, poor fit]"
same,Potency,[2],"inconclusive: 0.0211 µM [cytotoxic, full curve, poor fit]"
same,Potency,[3],"inconclusive: 33.5 µM [cytotoxic, single point]"
same,Potency,[4],inconclusive: 33.5 µM [single point]
same,Potency,[5],"inconclusive: 13.3 µM [cytotoxic, partial curve]"
same,"ratio activity, negative = inhibition",[6],inconclusive: -27.4%
same,Potency,[7],active: 29.8 µM
same,Potency,[8],"inconclusive: 26.6 µM [falling, partial curve]"
same,Potency,[9],"inconclusive: 23.7 µM [rising, partial curve]"
same,Potency,[10],"inconclusive: 23.9 µM [rising, partial curve, poor fit]"
same,Potency,[11],"inconclusive: 13.3 µM [cytotoxic, partial curve, poor fit]"
same,Potency,[12],"inconclusive: 16.9 µM [cytotoxic, partial curve, poor fit]"
same,Potency,[13],"inconclusive: 33.5 µM [inhibitor, single point]"
same,activation,[14],inconclusive: 38% [at 35.3 µM]
CCOC(=O)/C=C/C(=O)O,Potency,[15],active: 9.69 µM
same,"viability change, negative = cytotoxic",[7],inconclusive: -11%
same,Potency,[8],"inconclusive: 54.9 µM [falling, single point]"
same,Potency,[12],"inconclusive: 49 µM [cytotoxic, partial curve, poor fit]"
same,Potency,[13],"inconclusive: 48.6 µM [inhibitor, partial curve]"
same,Potency,[14],inactive
CC(COCCO)OCCO (centres undefined),activation,[15],inconclusive: -7.49%
same,Potency,[7],inactive
same,Potency,[13],"inconclusive: 0.0056 µM [inhibitor, full curve, poor fit]"
same,activation,[14],inconclusive: -0.558%

# Source: PubChem BioAssay (Tox21)
